Measurements as given in PubChem BioAssay AID686979 (National Center for Advancing Translational Sciences (NCATS), 2013).
The campaign covered roughly 420,000 compounds. About 50,000 (12%) were called active. The shares of active, inactive and inconclusive entries below differ from those in the screen. Calls come from the whole dose curve; as a rule, active = well fitted inhibition curve with a large enough effect; inconclusive = small, poorly fitted or top-dose-only effect; inactive = flat fitted curve, though single readings scatter. Potencies of inconclusive entries are left out as doubtful fits.

Assay: qHTS for Inhibitors of human tyrosyl-DNA phosphodiesterase 1 (TDP1): qHTS in cells in presence of CPT; note: nearly all actives have a fitted effect of over 55% in size
Conditions: chicken DT40 Tdp1-/-;hTDP1 cells + 20 nM CPT, ATP luminescence, 48 h; activity change, negative = growth inhibition: at 46.2 µM (top of the series) unless noted
Summary of the method: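 Chicken DT40 Tdp1-/- cells complemented with human TDP1, 400 cells/well, exposed to compounds plus 20 nM camptothecin for at least 48 h at 37 C; viability read as ATP content by CellTiter-Glo luminescence.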
% is set by controls: 0 for no effect and ±100 for the full control effect; potency is the fitted concentration of half-maximal effect; tags give direction and shape of the fitted curve.

Which Potency does the source give for CCOC(=O)c1c(NC(=O)CN2CCCc3ccccc32)sc(C)c1C here?
The Potency was inconclusive [inhibitor, single point].

For CCN(CC)S(=O)(=O)c1ccc(NC(=O)CSc2nnc(-c3cccc(OC)c3)n2C)cc1, which Potency is on record?
The Potency was inconclusive [inhibitor, single point].

With Cc1cccc(NC(=O)c2c(C)oc3ncn(CC(C)C)c(=O)c23)n1 as the molecule, how does the Potency read?
The Potency was active: 10.3 µM.

Which Potency does the source give for Cc1cccc(C)c1-n1nnnc1C1(C)CCC(=O)N1CCc1ccc(O)cc1 (centres undefined) here?
The Potency was inconclusive [inhibitor, single point].

For O=C(NCC1CCCO1)C(=O)NCC(c1ccco1)N1CCN(c2ccc(F)cc2)CC1 (centres undefined), which Potency is on record?
Its Potency is inconclusive [inhibitor, single point].

For C1=CN2CC=Cc3cc(/C=C/c4ccnc5ccccc45)cc(c32)C1, which Potency is on record?
Its Potency is active: 10 µM.

For Cc1ccc2c(c1)N(C(=O)CCC(=O)Nc1ccccc1Br)CC(C)O2 (centres undefined), which Potency is on record?
The Potency was inconclusive [inhibitor, single point].

For COc1cc(-c2cc(C(=O)Nc3ccc(S(=O)(=O)Nc4ncccn4)cc3)c3ccccc3n2)cc(OC)c1OC, which Potency is on record?
Its Potency is inconclusive [inhibitor, partial curve, poor fit].

With COc1ccc(NS(=O)(=O)c2cc(NC(=O)[C@H](C)NC(N)=O)ccc2N2CCCC2)cc1 as the molecule, how does the Potency read?
Its Potency is inconclusive [inhibitor, single point].

With Cc1ccc(CSc2nnc(-c3ccc(NC(=O)CCc4ccccc4)cc3)n2C)cc1 as the molecule, how does the activity change, negative = growth inhibition read?
The activity change, negative = growth inhibition was inconclusive: -30.3% [inhibitor].

Which Potency does the source give for CCCCn1c(=O)[nH]c(=O)c2c1nc(CN(C)Cc1cccc(OC)c1OC)n2CCC here?
The Potency was inconclusive [inhibitor, single point].

For Cc1nc(N)nc(N)c1CCCc1ccc(Cl)c(Cl)c1, which Potency is on record?
The Potency was active: 10.3 µM.

For CCOC(=O)CSc1nc2ccccc2n2cnnc12, which Potency is on record?
Its Potency is “inactive”.

With CCC(=O)Nc1nc2ccc(NC(=O)COc3ccccc3)cc2s1 as the molecule, how does the Potency read?
The Potency was “inactive”.

With CC1CCC2(CC1)NC(=O)N(CC(=O)Nc1sc3c(c1C(N)=O)CCC3)C2=O (centres undefined) as the molecule, how does the Potency read?
The Potency was inconclusive [inhibitor, single point].

With Cc1ccnc(NC(=O)c2cccc(NC(=O)c3ccccc3C)c2)c1 as the molecule, how does the Potency read?
The Potency was “inactive”.

Which Potency does the source give for O=C(CCC(=O)N(CC(=O)NC1CCCCC1)Cc1cccs1)Nc1nccs1 here?
Its Potency is inconclusive [inhibitor, single point].

For CC(C)(C)c1ccc(OCC(=O)N2CCC(c3nc4ccccc4s3)CC2)cc1, which Potency is on record?
The Potency was inconclusive [inhibitor, single point].

For N#Cc1ccc(N2CCN(C(=O)c3cccc(F)c3)CC2)c(F)c1, which Potency is on record?
The Potency was inconclusive [inhibitor, single point].

With Cc1cc(C)c(NC(=O)CSc2nc(=O)[nH]c3c2CCCC3)c(C)c1 as the molecule, how does the Potency read?
The Potency was inconclusive [inhibitor, single point].

For Cc1ccc(NS(=O)(=O)c2cc(C(=O)N3CCc4ccccc4C3)ccc2Cl)cc1, which Potency is on record?
Its Potency is inconclusive [inhibitor, single point].

With O=C(NNC(=O)C1CC1)c1cc(Br)c(Br)s1 as the molecule, how does the Potency read?
Its Potency is “inactive”.

Which activity change, negative = growth inhibition does the source give for O=C(Cn1c(SCC(=O)N2CCCc3ccccc32)nc2ccccc21)N1CCCC1 here?
The activity change, negative = growth inhibition was inconclusive: -30.2% [inhibitor].

For COc1cc(/C=C/C(=O)c2cccs2)cc(OC)c1OC, which Potency is on record?
The Potency was active: 3.76 µM.

Which Potency does the source give for COc1ccc(C2NC(=S)NC3=C2N2CCC3CC2)cc1 (centres undefined) here?
The Potency was “inactive”.

With Cc1cc2ccccn2c1C(=O)c1cccc([N+](=O)[O-])c1 as the molecule, how does the Potency read?
Its Potency is inconclusive [inhibitor, single point].

Which Potency does the source give for COc1ccc(CN2C(=O)C(O)(CC(=O)c3ccc4c(c3)OCO4)c3ccccc32)cc1OC (centres undefined) here?
Its Potency is active: 6.31 µM.

With CN1C(C(=O)c2ccccc2)=C(OC(=O)c2ccc(Br)cc2)c2ccccc2S1(=O)=O as the molecule, how does the Potency read?
The Potency was inconclusive [inhibitor, single point].

With CC1(NC(=O)CC(c2ccccc2)(c2ccccc2)c2ccccc2)CCN(Cc2ccc(-c3ccccc3)cc2)C1=O (centres undefined) as the molecule, how does the Potency read?
Its Potency is inconclusive [inhibitor, single point].

With CC(C)CC(=O)Nc1nnc(S(=O)(=O)N(C)Cc2ccco2)s1 as the molecule, how does the Potency read?
The Potency was “inactive”.

With c1ccc(COc2ccc(OCCCN3CCCCC3)cc2)cc1 as the molecule, how does the Potency read?
The Potency was inconclusive [inhibitor, single point].

With Cn1c(-c2ccccc2)cnc1NCc1ccc(F)cc1 as the molecule, how does the Potency read?
The Potency was inconclusive [inhibitor, single point].

With Cc1oc2c(c(C)cc3oc(=O)c(CC(=O)NCCc4ccccc4)c(C)c32)c1C as the molecule, how does the Potency read?
Its Potency is inconclusive [inhibitor, single point].

For C[N+]1(C)CCc2cc3c(cc2[C@@H]1[C@@H]1C(=O)Oc2c1ccc1c2OCO1)OCO3, which Potency is on record?
Its Potency is “inactive”.

With Cc1cc2nc(-c3ccc4c(c3)CCC4)ccn2n1 as the molecule, how does the activity change, negative = growth inhibition read?
The activity change, negative = growth inhibition was inconclusive: -33.8% [inhibitor].

For CCOC(=O)c1cccc(NC(=O)/C=C/c2cccc([N+](=O)[O-])c2)c1, which Potency is on record?
The Potency was inconclusive [inhibitor, full curve, poor fit].

For O=C(Nc1ccc(Cl)c(S(=O)(=O)N2CCCCC2)c1)c1ccco1, which Potency is on record?
The Potency was “inactive”.

With O=C(NC(=O)c1ccc(F)cc1)Nc1ccc(-c2cc(C(F)(F)F)nn2-c2ccccc2)cc1 as the molecule, how does the Potency read?
Its Potency is inconclusive [inhibitor, partial curve].

Which Potency does the source give for Cc1ccc(CSCC(=O)N2CCN(c3ccccc3)CC2)cc1 here?
The Potency was inconclusive [inhibitor, single point].

For CCOc1ncccc1C(=O)OCC(=O)N(CC(C)C)C1CCS(=O)(=O)C1 (centres undefined), which Potency is on record?
The Potency was “inactive”.

Which Potency does the source give for OCC[C@@H]1C[C@H](O)[C@@H](O)[C@@]2(OCc3ccc4ccccc4c32)O1 here?
The Potency was “inactive”.

For COc1ccccc1NC(=O)c1c(NCc2ccc(OC)c(OC)c2OC)sc2c1CCCC2, which Potency is on record?
The Potency was inconclusive [inhibitor, single point].

With CN1CCN(C(=O)c2ccc3c(c2)S(=O)(=O)c2ccccc2C3=O)CC1 as the molecule, how does the activity change, negative = growth inhibition read?
The activity change, negative = growth inhibition was inconclusive: -32.5% [inhibitor].

With CCOC(=O)c1c(C)[nH]c(C)c1S(=O)(=O)NCC(=O)Nc1cc(C)ccc1OC as the molecule, how does the activity change, negative = growth inhibition read?
The activity change, negative = growth inhibition was inconclusive: -30.2% [inhibitor].

For Cn1c(SCc2ccon2)nc2ccccc2c1=O, which Potency is on record?
Its Potency is inconclusive [inhibitor, single point].

Which Potency does the source give for Cc1ccc(NC(=O)Nc2ccc3c(c2)N(C)C(=O)c2ccccc2S3)c(C)c1 here?
Its Potency is inconclusive [inhibitor, single point].

For CC(C)c1ccc(NC(=O)CN2C(=O)NC(C)(C3CC3)C2=O)cc1 (centres undefined), which Potency is on record?
Its Potency is “inactive”.

With COc1ccc(C(CNC(=O)c2ccc(S(=O)(=O)Nc3ccccc3OC)cc2)N2CCCC2)cc1 (centres undefined) as the molecule, how does the Potency read?
The Potency was inconclusive [inhibitor, single point].

With O=C(NCc1cccc(Cl)c1)C1=CC=CN2CCS(=O)(=O)N=C12 as the molecule, how does the Potency read?
The Potency was “inactive”.

For CCc1nc2c(OCc3ccc(C(=O)N(C)C)cc3)cccn2c1N(C)C(=O)Nc1ccccc1OC, which Potency is on record?
The Potency was inconclusive [inhibitor, single point].

For COc1cc(OC)c(OC)cc1/C=C1\CCC/C(=C\c2cc(OC)c(OC)cc2OC)C1=O, which Potency is on record?
Its Potency is inconclusive [inhibitor, single point].

For COc1ccc(CC(=O)Nc2cccc(-c3cn4ccccc4n3)c2)cc1, which Potency is on record?
Its Potency is inconclusive [inhibitor, single point].

With CC1CCN(C(=O)CSc2nc3c(c(=O)n2C)SC(C)C3)CC1 (centres undefined) as the molecule, how does the Potency read?
The Potency was inconclusive [inhibitor, partial curve].

For COc1ccc(N2CCN(S(=O)(=O)CCNC(=O)C(c3ccccc3)c3ccccc3)CC2)cc1, which Potency is on record?
Its Potency is inconclusive [inhibitor, single point].

With CCOc1ccccc1NC(=O)c1ccc(Cl)c(NC(=O)CC(c2ccccc2)c2ccccc2)c1 as the molecule, how does the Potency read?
Its Potency is active: 18.4 µM.

Which Potency does the source give for COc1ccc(C(=O)/C=C/c2ccc(OC3CSC3)cc2)cc1OC here?
Its Potency is inconclusive [inhibitor, single point].

Which Potency does the source give for O=C(Cn1nnc2ccccc21)c1ccc(Cl)cc1 here?
Its Potency is “inactive”.

Which Potency does the source give for O=C(c1cc(COc2ccc(F)cc2Cl)on1)N1CCN(C2CCCCC2)C(=O)C1 here?
The Potency was active: 10.3 µM.

With C=C1CC2(CC(c3ccccc3)OC(c3ccccc3)C2)OC1=O (centres undefined) as the molecule, how does the Potency read?
Its Potency is active: 1.84 µM.

With Cc1cc(C)c(S(=O)(=O)Nc2ccc3c(c2)CCC3)c(C)c1 as the molecule, how does the Potency read?
The Potency was inconclusive [inhibitor, single point].

For Cc1cc(Cl)ccc1OCc1n[nH]c(=S)n1C1CCCCC1, which Potency is on record?
The Potency was “inactive”.

Which Potency does the source give for O=C(O)CCCC[C@@H]1SC[C@@H]2NC(=O)N[C@@H]21 here?
The Potency was “inactive”.

For COc1cccc(C2C=C(c3ccc(C)c(C)c3)Nc3nnnn32)c1OC (centres undefined), which Potency is on record?
The Potency was active: 5.17 µM.

Which Potency does the source give for O=C(NCCCn1ccnc1)C(=O)NCC(c1cccnc1)N1CCN(c2ccc(F)cc2)CC1 (centres undefined) here?
Its Potency is inconclusive [inhibitor, partial curve, poor fit].

With Cc1ccc(-c2c(CN3CCN(c4cccc(C(F)(F)F)c4)CC3)csc2C)cc1 as the molecule, how does the Potency read?
Its Potency is inconclusive [inhibitor, single point].

Which Potency does the source give for O=C(NCCCc1ccccc1)c1c(O)nc2sccn2c1=O here?
The Potency was inconclusive [inhibitor, single point].

Which Potency does the source give for COc1ccc(NC(=O)CSc2nccn2Cc2ccc(F)cc2)c(OC)c1 here?
Its Potency is “inactive”.

With Cc1ccc(-c2nn(-c3ccccc3)cc2C(=O)NCC2CCCO2)cc1 (centres undefined) as the molecule, how does the Potency read?
The Potency was inconclusive [inhibitor, single point].

With COc1ccc(-n2c(=O)c(-c3ccc(F)cc3)nc3cnc(OC)nc32)cc1 as the molecule, how does the Potency read?
Its Potency is inconclusive [inhibitor, single point].
